# Test results as given in PubChem BioAssay AID686970 (National Center for Advancing Translational Sciences (NCATS), 2013).
# In all, about 360,000 compounds went through this assay and about 6,000 (1.7%) were called active. The shares of active, inactive and inconclusive entries below differ from those in the screen. The call rests on the fitted dose curve; in most records, active means well fitted cell-killing curve with a large enough effect; inconclusive means small, poorly fitted or top-dose-only effect, or effect the other way; inactive means flat fitted curve, though single readings scatter. No potency is given beside an inconclusive call; the fits are too rough.
# Assay: qHTS for induction of synthetic lethality in tumor cells producing 2HG: qHTS for the HT-1080-NT fibrosarcoma cell line;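 further: NT is the 2HG producing partner of a matched IDH1 knockdown line; nearly all actives have a fitted effect of over 55% in size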;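 on activity, negative = less viability: 0% = DMSO-treated cells and -100% = media-only wells without cells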
# Settings: HT-1080-NT fibrosarcoma viability, CellTiter-Glo ATP luminescence, 48 h; activity, negative = less viability: at 46.1 µM (top of the series) unless noted
# Outline: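 A 48-hour cytotoxicity screen used HT-1080-NT cells plated 2 hours before compound delivery. ATP-based CellTiter-Glo luminescence measured viability, normalized to DMSO and no-cell controls.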
# Potency means the concentration at half of the fitted maximal effect; tags describe the fitted curve by direction and shape.
Compound,Potency,"activity, negative = less viability"
O=C(Nc1ccccc1-c1nnn(CC(=O)N2CCCc3ccccc32)n1)c1ccc(Cl)cc1,inactive,
COc1ccccc1NC(=O)Cc1ccc(-c2ccccc2)cc1,"inconclusive [cytotoxic, full curve, poor fit]",
Cc1cccc(NCc2cc(Cl)cc(Cl)c2O)n1,"inconclusive [cytotoxic, partial curve]",
CCN(c1ccccc1)S(=O)(=O)c1ccc(OC)c(NC(=O)CNCCc2ccccc2)c1,"inconclusive [cytotoxic, single point]",
Cc1nc(C)c(-c2csc(Nc3cccnc3)n2)s1,"inconclusive [cytotoxic, single point]",
CCOc1ccc(C(O)(c2ccccc2)C(CN2CCCC2)c2ccccc2)cc1 (stereo not drawn),"inconclusive [cytotoxic, single point]",
CCOC(=O)N1CCC(NC(=O)c2cc(S(=O)(=O)N3CCCC3)cn2C)CC1,"inconclusive [rising, partial curve]",
COc1ccc(C(=O)NC(=S)NC(C)C)cc1Br,"inconclusive [cytotoxic, single point]",
N#Cc1nc(COc2ccc(-c3ccccc3)cc2)oc1NCCCN1CCOCC1,"inconclusive [cytotoxic, single point]",
COc1cccc(Nc2nc(NCCO)c3ccccc3n2)c1,"inconclusive [cytotoxic, partial curve]",
Oc1ccc(/C=N/Nc2nccnc2Cl)cc1,active: 16.4 µM,
CCCCC[C@H](C)N1C[C@@H](COCc2ccccc2)Oc2cc(N3CCC[C@H]3CO)ccc2S1(=O)=O,"inconclusive [cytotoxic, single point]",
CC(C)Oc1cc(F)ccc1-c1cc(C(=O)NCC2CCCCC2)[nH]n1,"inconclusive [rising, single point]",
CCCCSc1nc(C)cc(NC(=S)Nc2ccc(OC)cc2)n1,"inconclusive [cytotoxic, single point]",
Cc1nc2ccc(C(=O)N3c4ccccc4CC3C)cc2s1 (stereo not drawn),"inconclusive [cytotoxic, single point]",
Cc1nc2ccccc2c(=O)n1/N=C/c1cc(Br)ccc1O,,inconclusive: -24.8% [cytotoxic]
CCn1c(Cn2nnc(-c3ccccc3)n2)nnc1SCc1ccc(Cl)c(Cl)c1,"inconclusive [cytotoxic, single point]",
Oc1ccccc1/C=N/Nc1nc2ccccc2o1,"inconclusive [cytotoxic, full curve, poor fit]",
